Experimental findings from PubChem BioAssay AID1259407 (Chemical Carcinogenesis Research Information System (CCRIS), 2018) are described below.

Entries after “also recorded” stand apart in the source; their conditions may differ. Not every entry of the source has a single result; some have several. The list is limited to them. How the calls were made is not given here. There may be further records. The values listed for one entry differ, and nothing given here explains why; they may come from other doses, times, organisms or constructs than stated. A tag in brackets gives the origin of a value. A, B and so on number the origins entry by entry. Brackets with × count equal records among those shown.

The data set deals with CCRIS mutagenicity, Ames/micronucleus/aberration tests. The experiment in a line: CCRIS mutagenicity studies.
The mark [1] stands for this setting: End Point: IN VITRO CHROMOSOMAL ABERRATIONS, Test System: CHL CELLS, Metabolic Activation: NONE.
Where [2] appears, read: Test System: MOUSE LYMPHOMA, Strain/Indicator: L5178Y (TK+/TK-), Metabolic Activation: RAT, LIVER, S-9, AROCLOR 1254, Method: SUSPENSION/PLATE.
Where [3] appears, read: Test System: MOUSE LYMPHOMA, Strain/Indicator: L5178Y (TK+/TK-), Metabolic Activation: NONE, Method: SUSPENSION/PLATE.
The mark [4] stands for this setting: Test System: E. COLI, Strain/Indicator: WP2 UVRA, Metabolic Activation: HAMSTER, LIVER, S-9, Method: STANDARD PLATE.
[5] abbreviates: Test System: E. COLI, Strain/Indicator: WP2 UVRA, Metabolic Activation: MOUSE, LIVER, S-9, Method: STANDARD PLATE.
Where [6] appears, read: Test System: AMES SALMONELLA TYPHIMURIUM, Strain/Indicator: TA98, Metabolic Activation: NONE, Method: PREINCUBATION
The mark [7] stands for this setting: End Point: IN VITRO CHROMOSOMAL ABERRATIONS, Test System: CHO CELLS, Metabolic Activation: RAT, LIVER, S-9, AROCLOR 1254.
[8] abbreviates: End Point: In vitro chromosomal aberrations, Test System: Chinese hamster lung (CHL/IU) cells, Metabolic Activation: None.
[9] abbreviates: Test System: AMES SALMONELLA TYPHIMURIUM, Strain/Indicator: TA100, Metabolic Activation: NONE, Method: STANDARD PLATE.
The mark [10] stands for this setting: Test System: AMES SALMONELLA TYPHIMURIUM, Strain/Indicator: TA100, Metabolic Activation: RAT, LIVER, S-9, AROCLOR 1254, Method: STANDARD PLATE.
[11] abbreviates: End Point: IN VITRO CHROMOSOMAL ABERRATIONS, Test System: CHO CELLS, Metabolic Activation: NONE.

As to `C=CC#N`, the mutagenic call runs as follows: under setting [1], “active; positive (structural changes) (2×); also recorded: active; positive (structural changes); authors report equivocal results for ploidy chang”; under setting [2], “active; positive [study A]; also recorded: active; positive [study B]; also recorded: active; positive. reevaluation of results: positive [study C]”. As for `Nc1c(Oc2ccccc2)cc(O)c2c1C(=O)c1ccccc1C2=O`, the mutagenic call under setting [3] was “inactive; positive. reevaluation of results: negative; also recorded: inactive; negative. reevaluation of results: negative”. As to `O=C1c2cccc(O)c2C(=O)c2cccc(O)c21`, the mutagenic call (Test System: AMES SALMONELLA TYPHIMURIUM, Strain/Indicator: TA1538, Metabolic Activation: RAT, LIVER, S-9, AROCLOR 1254, Method: STANDARD PLATE) is “active; positive and inactive; negative”.

Regarding `C[C@H](CCC(=O)O)[C@H]1CC[C@H]2[C@@H]3CC[C@@H]4C[C@H](O)CC[C@]4(C)[C@H]3CC[C@]12C`, the mutagenic call under setting [3] was “inactive; negative [study A] and inactive; negative [study B] and active; positive [study B]”. Take `Nc1ccccc1C(=O)OC/C=C/c1ccccc1`: the mutagenic call was “inactive; negative and active; positive (2×)” under setting [4]; “inactive; negative and active; positive” (Test System: E. COLI, Strain/Indicator: WP2 UVRA, Metabolic Activation: MOUSE, LIVER, S-9, AROCLOR 1254, Method: STANDARD PLATE); “inactive; negative and active; positive (2×)” under setting [5]; “inactive; negative and active; positive” (Test System: E. COLI, Strain/Indicator: WP2 UVRA, Metabolic Activation: RAT, LIVER, S-9, AROCLOR 1254, Method: STANDARD PLATE); “inactive; negative and active; positive” (Test System: E. COLI, Strain/Indicator: WP2 UVRA, Metabolic Activation: RAT, LIVER, S-9, Method: STANDARD PLATE).

On to `Cc1c(N(C)CS(=O)(=O)O)c(=O)n(-c2ccccc2)n1C`, for which the mutagenic call reads like this: under setting [6], “active; positive [study A] and inactive; negative [study B]”; (Test System: AMES SALMONELLA TYPHIMURIUM, Strain/Indicator: TA100, Metabolic Activation: NONE, Method: PREINCUBATION) “active; positive [study A] and inactive; negative [study B]”.

Consider `O=C(c1ccccc1)C(O)c1ccccc1` (stereo not given), for which the mutagenic call reads like this: under setting [7], “inactive; negative; precipitation occurred at 500, 1000, 1500, and 2000 ug/ml; also recorded: inactive; negative; precipitation occurred at all doses”; under setting [2], “inactive; negative [study A] and active; positive [study B]”. Take `ClCc1cccnc1`: the mutagenic call reads like this: (Test System: E. COLI, Strain/Indicator: WP2 UVRA, Metabolic Activation: HAMSTER, LIVER, S-9, AROCLOR 1254, Method: STANDARD PLATE) “inactive; negative (2×) and active; positive”; under setting [4], “inactive; negative (2×) and active; positive”; under setting [5], “inactive; negative (2×) and active; positive”. `CN(C)c1ccc(Cc2ccc(N(C)C)cc2)cc1`: the mutagenic call (Test System: AMES SALMONELLA TYPHIMURIUM, Strain/Indicator: TA98, Metabolic Activation: MOUSE, LIVER, S-9, AROCLOR 1254, Method: STANDARD PLATE) was “inactive; negative (2×) and active; positive”; the mutagenic call under setting [3] was “inactive; negative and active; positive”. On to `C=CCO`, for which, under setting [8], the mutagenic call is “inactive; negative. weak ploidy effects showed no dose response; also recorded: inactive; negative. weak structural changes response not dose related; also recorded: inactive; negative”. In the case of `Nc1c(Cl)cc([N+](=O)[O-])cc1[N+](=O)[O-]`, the mutagenic call under setting [1] was “inactive; negative; also recorded: inactive; negative; authors report equivocal results for ploidy changes at 0.025 and 0.05; also recorded: inactive; negative; authors report equivocal results for ploidy changes at 0.1 mg/ml; prec”. Turning to `O=[As]O`, the mutagenic call is, setting by setting: (End Point: IN VITRO MICRONUCLEUS, Test System: HUMAN FIBROBLAST, HFW CELLS, Metabolic Activation: NONE) “active; positive (mainly kinetochore-positive mn); also recorded: inactive; positive (mainly kinetochore-negative mn)”; (End Point: IN VIVO MICRONUCLEUS, Test System: BONE MARROW POLYCHROMATIC ERYTHROCYTES, Species: MOUSE, Strain/Sex: BALB/C/MALE, Route: IP INJECTION) “inactive; negative; increase in micronucleated polychromatic erythrocytes but not signific; also recorded: active; positive; also recorded: inactive; negative”; (End Point: IN VIVO MICRONUCLEUS, Test System: BONE MARROW POLYCHROMATIC ERYTHROCYTES, Species: MOUSE, Strain/Sex: CBA/MALE, Route: IP INJECTION) “inactive; negative and active; positive”.

`c1cscn1`: the mutagenic call is “active; positive [study A] and inactive; negative [study B]” (Test System: AMES SALMONELLA TYPHIMURIUM, Strain/Indicator: TA98, Metabolic Activation: NONE, Method: STANDARD PLATE); “active; positive [study A] and inactive; negative [study B]” under setting [9]; “active; positive [study A] and inactive; negative [study B]” under setting [10]. Turning to `CCCCOc1ccc(C=Nc2ccc(CC)cc2)cc1`, under “Test System: AMES SALMONELLA TYPHIMURIUM, Strain/Indicator: TA100, Metabolic Activation: HAMSTER, LIVER, S-9, AROCLOR 1254 (30%), Method: PREINCUBATION”, the mutagenic call was “active; positive [10 to 1000 µg/plate] and inactive; negative [100 to 10000 µg/plate]”. Regarding `C=C(C)CCl`, the mutagenic call under setting [1] is “inactive; negative; authors report equivocal results for ploidy changes at highest dose; also recorded: active; positive; authors report equivocal results for ploidy changes at highest dose fo”; the mutagenic call under setting [11] is “active; positive; weak response and inactive; negative and active; positive”; the mutagenic call under setting [7] was “inactive; negative; also recorded: active; positive; weak response; all aberrations observed as pulverized chromosomes”. For the molecule `O=C1C(Cl)=C(Cl)C(=O)C(Cl)=C1Cl`, the mutagenic call under setting [8] is “active; positive (structural changes and ploidy); also recorded: active; positive (structural changes and ploidy). toxicity at 0.015 and 0.018 mg/ml (2×)”. Regarding `Oc1ccc(O)cc1`, the mutagenic call was “inactive; negative; also recorded: active; positive; also recorded: inactive; negative; authors report equivocal results” (End Point: IN VITRO MICRONUCLEUS, Test System: CHINESE HAMSTER V79 CELLS, Metabolic Activation: NONE); “active; positive (structural changes and ploidy).toxic at 0.010 mg/ml; also recorded: active; positive (structural changes and ploidy). weak ploidy response; also recorded: active; positive (structural changes)” under setting [8]. As for `Cc1c(N=C=O)cccc1N=C=O`, the mutagenic call is, setting by setting: under setting [1], “active; positive (structural and ploidy changes) (2×); also recorded: inactive; negative; authors report equivocal results for ploidy changes at highest dose”; under setting [11], “inactive; negative; precipitation occurred at 500 and 1000 ug/ml; also recorded: active; positive; weak response; precipitation occurred at all doses; also recorded: active; positive; precipitation occurred at 600, 800 and 1000 ug/ml”; (Test System: AMES SALMONELLA TYPHIMURIUM, Strain/Indicator: TA98, Metabolic Activation: RAT LIVER S-9, PHENOBARBITAL AND BETA-NAPHTHOFLAVONE, Method: PREINCUBATION) “inactive; negative and active; positive”; (Test System: AMES SALMONELLA TYPHIMURIUM, Strain/Indicator: TA100, Metabolic Activation: RAT LIVER S-9, PHENOBARBITAL AND BETA-NAPHTHOFLAVONE, Method: PREINCUBATION) “inactive; negative and active; positive”. As to `COP(=O)(OC)OC=C(Cl)Cl`, the mutagenic call under setting [9] is “inactive; negative [study A] and active; positive [study B] and active; positive [study C]”. Turning to `ClC(Cl)(Cl)C(Cl)(Cl)Cl`, under “End Point: IN VITRO CHROMOSOMAL ABERRATIONS, Test System: CHINESE HAMSTER OVARY CELLS, Metabolic Activation: NONE”, the mutagenic call is “active; positive and inactive; negative”.

In the case of `O=C(O)/C(Cl)=C(/C(=O)O)C(Cl)Cl`, under setting [9], the mutagenic call was “active; positive [study A] and inactive; negative [study B]”. As for `CC(C)(S)[C@@H](N)C(=O)O`, under “Test System: CHINESE HAMSTER V-79, Strain/Indicator: V-79/6-THIOGUANINE, Metabolic Activation: RAT, KIDNEY, S-9, Method: STANDARD PLATE”, the mutagenic call is “inactive; negative and active; positive”.

With `ClCC1CO1` (stereo not given), the mutagenic call was “active; positive [study A] and inactive; negative [study B]” under setting [6]; “inactive; negative [study A] and active; positive [study B]” under setting [10]; “active; positive [study A] and inactive; negative [study B]” (Test System: AMES SALMONELLA TYPHIMURIUM, Strain/Indicator: TA1537, Metabolic Activation: NONE, Method: PREINCUBATION).
